This is an account of results in the RNAGym collection of RNA variant scans (doi:10.7554/elife.90254).

Read counts are not given, so values of variants with three or more changes are uncertain.

First the molecules themselves.
B1: LINE1-mini (parent)
chain: GGCAGAGCUCAACACAGCGUGGCAAAGUGGCUGUGGCUAGACUGCC

This series covers variants of B1. Briefly: self-cleavage, relative activity (ratio to wild type); higher = more cleavage; in vitro, sequencing; the parent is a self-cleaving ribozyme.
As for GGCAGAGCUCAACAAAGCGUGGCAAAGUGGGUGUGCCUAGACUGCC, the self-cleavage was determined as 0.12.
As to GCCAGAGCUCAACACAGAGUGGCAAAGUGGCUGUGGCUAGUCUGCC, the self-cleavage was 0.02.
The figure for GGCAGAGCUCAACACAGCGUUGCAUAGUGUCUGUGGCUAGACUGCG is 0.95; for GGCAGAGCUCAACAGAGCGUGGAAAAGUGGCUGUGGCUAGACUGCG it is 0.09.
As for GGCAGAGCUCAACACAGCCUGGCAAAGUUGCGGUUGCUAGACUGCC, the self-cleavage was found to be 0.03.
As to CGCAGAGCUCAACACAGCGUGGCAAAGUGGAUGUGGCUAGUCUGCC, the self-cleavage was found to be 0.02.
With CGCAGAGCUCAACACAGCGUGGCAAAGUGUCCGCGGCUAGACUGCC, the self-cleavage turned out to be 0.
The figure for GGCAGAGCUCAACACAGCGUGGCAAAGUGUCUGUGGCUAUACUGAC is 0.09; for GGCAGAGCUCAACACAGCGUGGCGAAGUGGCCGUGGUUAUACUGCC it is 0.07; for GGCAGAGCUCAACUAAGCGUAGCAAAAUGUCUGUGGCUAGACUGCC it is 0.08.
As for UGAAGAGCUCUACACAGCGGGGCAAAGUGGCUGUGGCUAGACUGCC, the figure is 0.03; as for GGCAGCGCUCAACACAUCGUGGCAAAGUGGCUGUGGCUAGACAGCC, 0.08; as for GGCAGAGCUCAACACAGCAUGGCAACGUGGCUGUGGCUAAACUGCC, 0.16.
As to GUCAGAGCUCAACACAGCGUGGCAAAGUGGCUGCGGCUAGGCUGUC, the self-cleavage is 0.01.
For the variant GGCAGAGCUCAGCAUAGCGUGGCAAAGAGGCUGUGACUAGACUGUC, the self-cleavage was determined as 0.02.
The figure for GGUAGGGCUCAACACAGCGUGGCAAAGUGCCUGUGGCUAGACUGCC is 0.41; for GGCUGAGCUAAACACAGCGUGGCAAAGUGGCUGUGGCUAUACUGCC it is 0.03; for GCCAAAGCUCAACACAGCGUGGCAAAGUGGCUGUGGCUAGACUGCA it is 0.04.
As for GGCAGAACUCAACACUGCGUGGCAAAGUAGCUGUUGCUAGACUGCC, the self-cleavage was 0.03.
As to UGCAGGGCUAAACACAGCGUGGCAAAGUGGCUGUGCCUAAACUGCC, the self-cleavage stood at 0.01.
Regarding GGCAGAGCUAAACAAAGCGUGGCAAAGUGGCUGUCGCUAGACUGCC, the self-cleavage stood at 0.01.
Take GACAGAGCUCAACACAGCGGGGCAAAGUGGCUGAGGCUAGACUGUC: the self-cleavage was determined as 0.11.
In the case of GGCAGAGCUCUACACAGCGUCCCAACGUGACUGUGGCUAGACUUCC, the self-cleavage was 0.02.
On to GGCAGAGCUCAACACCGCGUCGCAAACUGGCUGUGGCUAGACUGCU, for which the self-cleavage came to 0.05.
Regarding GGCAGAGCUCAACACAGCGUGGCAUAGAGGCUGUGGGUCGACUGCC, the self-cleavage worked out at 0.33.
As for GGCAGAGCUCAUCAGAGCGUGGCAAAGUGGCUGUGACUAGACUGCC, the figure is 0.01; as for GGCCGAGCUUAACACAGCUUGGCAAAGUGGCUGUGGCUAGACUGCC, 0.03.
As for GGCCGAGCUCAACACACCGUGGCAAAGUGGCUGUGGAAAGAUUGCC, the figure is 0.03; as for GGCAGAGCUCAACACGGCGUGGCAAAGUGGCUGUGUAUAGACUGUC, 0.04.
UGCGGAGCUCAACACAGCGUGGCAAAGUGGCUGUGGCUAGACUGCA: the self-cleavage came to 0.12.
Turning to GGCAGAGCUCUACACAGCGUGGCAAGGUGGCUGCGGCUAGACUGCC, the self-cleavage amounted to 0.02.
On to GGCAGAGCUCAACACAGCGUGGCAAUGUGGCUGUGGCUAGCCUUCC, for which the self-cleavage worked out at 0.04.
As for GGCAAAGCUUAACACAGCGUGGCAAAGUGGCUGUGGCUAGAAUGCC, the figure is 0.07; as for GGCAGAGCUCAACAAAGCGUGACAAAGUGGCUGUGGCUAGACUGAC, 0.06.
As for GGCAGCGAUCAACACAGCGUGGCAAAGUGGCUGUGGCUAGACUGCU, the self-cleavage worked out at 0.24.
In the case of GACAGAUAUCAACACAGCGUGGCAAAGUGGCUGUGGCUAGACUGCC, the self-cleavage amounted to 0.79.
The figure for GGCAGAACUAAACACAGCGUGGCAAUGCGGCUGUGGCUAGACUGAC is 0.01; for GGCAGAGCUCAACUCAGAGUGGCAAAAUGGCUGUGGCUAGACAGCC it is 0.05.
Take GGCAGAUCUCAACACAGCGUGGAAAAGUGGCUGUGGCUAGACUGCA: the self-cleavage was found to be 0.02.
With GGCUGAGCUCAAUACAGCGUGGCAAAGCCGCUGUGGCUAGACUGCC, the self-cleavage worked out at 0.01.
GGCAGAGCUCAAUACAGAGUGGUACAGUGGCUGUAGCUAGACUGCC: the self-cleavage stood at 1.16.
The figure for GGCAGAGCUUAACAGAGCGUGGCAAAGUGGCUGUGGUUAGAAUGCC is 0.01; for GGCAGAGCUUAACACAGCGUGGCAAGGUAGCUGUGGCUAGACUGCC it is 0.41; for UGCAUAGCUCAACACAGCGUGGCAAAGUGGCUGUGGCUAAACUGCC it is 0.01.
As for GGCAGGGCGCAACACAGCGUGGCAAAGUGUGUGUGGCUAUACCGCA, the figure is 0.09; as for GUGAGAGCUCAACACAGCGUGGCAAAGUGGCUGUGGUUAGACUGCC, 0.11.
The figure for GGCAGAGCACAAUAUAGCGUGGCAAGGUGGCUGUGGCUAGACUGCC is 0.03.
As for GGCAGAGCUCAAGACAGCGUGGCAAAGUGGCUAUGGCUAGACUGAC, the self-cleavage is 0.01.
For GGCAGAGCUCAACACAGCGUGGCAGAGUGGCUGUUGCCAGACUGCC, the self-cleavage came out at 0.04.
As for GGCCGAGCUCAACACAGCGUGGCAAAGUUGCAGUGGCUAGAAUGCC, the figure is 0.05; as for GGCAGAGCUCAACACAGCGUGGCAAAGUGUCUGUGGCUUGACUUCC, 0.
On to GGCAGAGCUCGAGACAGCGUUGCAAAGUGGCUGAGGCUAGACUGCC, for which the self-cleavage was 0.
On to GGCAGAGUUCAACCCAGCGUGGCAAAGUUGAUGUGGCAAGACUGCC, for which the self-cleavage turned out to be 0.06.
With AGCAGAGAUCAACACAGCGUGGCAAAGAGGCUGUGACAAGACUACC, the self-cleavage was determined as 0.42.
As to GGCAGAGCACAACACAGAGUGGCAAAGGGGCUGUGGCUAGUCUGCC, the self-cleavage was 0.13.
GGAAGAGCUCGACACAGCGUGGCAAAGUGGCUGUGGAUAGACUGCC: the self-cleavage is 0.04.
